# Source: the supplement of paper PMC4604168 (melanoma cell lines)
# Some of the results follow. Repeats are few or missing, and single values can be far off.
# Test system: MeWo
# Test: cell count relative to DMSO control; melanoma cells; higher = more viable cells
# Conditions: library dose: standard library concentration; 72 h
# 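Further: cells treated in 1,536-well plates, then fixed and DAPI-stained, with nuclei counted from automated high-throughput microscope images.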
row,Structure (SMILES),cell count
1,"COc1cc2c(Oc3ccc4[nH]c(C)cc4c3F)ncnc2cc1OCCCN1CCCC1 [cediranib] + CCN(CC)CCCCNc1ncc2cc(-c3cc(OC)cc(OC)c3)c(NC(=O)NC(C)(C)C)nc2n1 [PD173074] (first compound 2 µM, partner dose 0.5 µM)",102%
2,"NC(=O)c1ccc(N(C(N)=O)c2c(F)cccc2F)nc1-c1ccc(F)cc1F + CN(C)S(=O)(=O)c1ccc2c(c1)/C(=C/c1cc3c([nH]1)CCCC3)C(=O)N2 [SU6656] (first compound 2 µM, partner dose 2 µM)",78.2%
3,"CCCCCCCCc1ccc(CCC(N)(CO)CO)cc1 [fingolimod] + COCC[n+]1c2c(n(Cc3cnccn3)c1C)C(=O)c1ccccc1C2=O [YM155] (first compound 10 µM, partner dose 0.002 µM)",28.4%
4,"CC(C)(C)c1cnc(CSc2cnc(NC(=O)C3CCNCC3)s2)o1 + COc1ccc2c(c1)CCC1C2CCC2(C)C(NCCCCCCN3C(=O)C=CC3=O)CCC12 [U73122] (first compound 0.05 µM, partner dose 2 µM)",67.5%
5,"CC(C)(C)c1cnc(CSc2cnc(NC(=O)C3CCNCC3)s2)o1 + COc1ccc(COc2ccc(Cc3cnc(N)nc3N)cc2OC)cc1 [GW2580] (first compound 0.05 µM, partner dose 5 µM)",98.6%

# Test system: RPMI7951
# Test: as above
# Conditions: library dose: standard library concentration; 72 h
row,Structure (SMILES),cell count
1,"COc1cc2c(Oc3ccc4[nH]c(C)cc4c3F)ncnc2cc1OCCCN1CCCC1 [cediranib] + N#Cc1c(O)c2c(-c3ccc(-c4ccccc4O)cc3)csc2[nH]c1=O [A769662] (first compound 2 µM, partner dose 10 µM)",82%
2,"CC(C)(C)c1cnc(CSc2cnc(NC(=O)C3CCNCC3)s2)o1 + CN(C)S(=O)(=O)c1ccc2c(c1)/C(=C/c1cc3c([nH]1)CCCC3)C(=O)N2 [SU6656] (first compound 0.05 µM, partner dose 2 µM)",47.9%
3,"COc1cc2c(Oc3ccc4[nH]c(C)cc4c3F)ncnc2cc1OCCCN1CCCC1 [cediranib] + COc1ccc(COc2ccc(Cc3cnc(N)nc3N)cc2OC)cc1 [GW2580] (first compound 2 µM, partner dose 5 µM)",118%
4,"CCCCCCCCc1ccc(CCC(N)(CO)CO)cc1 [fingolimod] + OCCn1cc(-c2cnc3nnn(Cc4ccc5ncccc5c4)c3n2)cn1 [PF04217903] (first compound 10 µM, partner dose 5 µM)",5.19%
5,"NC(=O)c1ccc(N(C(N)=O)c2c(F)cccc2F)nc1-c1ccc(F)cc1F + Clc1ccc(Nc2nnc(Cc3ccncc3)c3ccccc23)cc1 [vatalanib] (first compound 2 µM, partner dose 10 µM)",116%
6,"CCc1ccc(CCOc2ccc(CC3SC(=O)NC3=O)cc2)nc1 (centres undefined) [pioglitazone] + CC(C)CCN1c2nc(Nc3cc(F)c(O)c(F)c3)ncc2N(C)C(=O)C1C [BID1870] (first compound 10 µM, partner dose 1 µM)",61.6%
7,"Cc1ccc(NC(=O)c2cccc(N(C)C)c2)cc1NC(=O)c1ccc(O)cc1 + CN(C)S(=O)(=O)c1ccc2c(c1)/C(=C/c1cc3c([nH]1)CCCC3)C(=O)N2 [SU6656] (first compound 10 µM, partner dose 2 µM)",45%
8,"NC(=O)c1ccc(N(C(N)=O)c2c(F)cccc2F)nc1-c1ccc(F)cc1F + Cc1cc(N2CCOCC2)cc2[nH]c(-c3c(NC[C@@H](O)c4cccc(Cl)c4)cc[nH]c3=O)nc12 [BMS536924] (first compound 2 µM, partner dose 1 µM)",101%
9,"Cc1ccc(NC(=O)c2cccc(N(C)C)c2)cc1NC(=O)c1ccc(O)cc1 + CCCCCCCCCCCC1=C(O)C(=O)C=C(O)C1=O [Embelin] (first compound 10 µM, partner dose 6 µM)",76.1%
10,"CN(NC(=O)CC(=O)NN(C)C(=S)c1ccccc1)C(=S)c1ccccc1 + Cn1cc(/C=C2\C(=O)Nc3cccnc32)c2ccccc21 [GW441756] (first compound 0.03 µM, partner dose 2 µM)",95.8%
11,"CCCCCCCCc1ccc(CCC(N)(CO)CO)cc1 [fingolimod] + O=C(O)[C@@H]1[O][Sb](=[O])([O][Sb]2(=[O])[O][C@H]([C@H](O)CO)[C@H](O)[C@H](C(=O)O)[O]2)[O][C@H]([C@H](O)CO)[C@@H]1O [stibogluconate] (first compound 10 µM, partner dose 10 µM)",72.8%
12,"Cc1ccc(NC(=O)c2cccc(N(C)C)c2)cc1NC(=O)c1ccc(O)cc1 + COc1cc(N2CCC(N3CCN(C)CC3)CC2)ccc1Nc1ncc(Cl)c(Nc2ccccc2S(=O)(=O)C(C)C)n1 [NVP-TAE684] (first compound 10 µM, partner dose 0.4 µM)",60.9%
13,"COc1cc2c(Oc3ccc4[nH]c(C)cc4c3F)ncnc2cc1OCCCN1CCCC1 [cediranib] + COc1cc(N2CCC(N3CCN(C)CC3)CC2)ccc1Nc1ncc(Cl)c(Nc2ccccc2S(=O)(=O)C(C)C)n1 [NVP-TAE684] (first compound 2 µM, partner dose 0.4 µM)",51.2%
14,"COc1cc2c(Oc3ccc4[nH]c(C)cc4c3F)ncnc2cc1OCCCN1CCCC1 [cediranib] + Cn1cc(/C=C2\C(=O)Nc3cccnc32)c2ccccc21 [GW441756] (first compound 2 µM, partner dose 2 µM)",70%
15,"COc1cc2c(Oc3ccc4[nH]c(C)cc4c3F)ncnc2cc1OCCCN1CCCC1 [cediranib] + Oc1cc(-c2nc(-c3ccccc3)[nH]c2-c2ccncc2)ccc1Cl [L779450] (first compound 2 µM, partner dose 1 µM)",40.3%
16,"NC(=O)c1ccc(N(C(N)=O)c2c(F)cccc2F)nc1-c1ccc(F)cc1F + Cc1nc(Nc2ncc(C(=O)Nc3c(C)cccc3Cl)s2)cc(N2CCN(CCO)CC2)n1 [dasatanib] (first compound 2 µM, partner dose 0.02 µM)",27.5%
17,"CC(C)(C)c1cnc(CSc2cnc(NC(=O)C3CCNCC3)s2)o1 + c1cc(-c2cnn3cc(-c4ccc(OCCN5CCCCC5)cc4)cnc23)ccn1 [Dorsomorphin] (first compound 0.05 µM, partner dose 2 µM)",4.39%
18,"CC(C)(C)c1cnc(CSc2cnc(NC(=O)C3CCNCC3)s2)o1 + C[C@@H]1CCN(C(=O)CC#N)C[C@@H]1N(C)c1ncnc2[nH]ccc12 [CP690550] (first compound 0.05 µM, partner dose 5 µM)",23.2%
19,"CC(C)(C)c1cnc(CSc2cnc(NC(=O)C3CCNCC3)s2)o1 + Oc1nc(-c2ccc(C(F)(F)F)cc2)nc2c1CSCC2 [XAV939] (first compound 0.05 µM, partner dose 10 µM)",39.5%
20,"NC(=O)c1ccc(N(C(N)=O)c2c(F)cccc2F)nc1-c1ccc(F)cc1F + C=C(c1ccc(C(=O)O)cc1)c1cc2c(cc1C)C(C)(C)CCC2(C)C [Bexarotene] (first compound 2 µM, partner dose 10 µM)",65.8%
21,"CCc1ccc(CCOc2ccc(CC3SC(=O)NC3=O)cc2)nc1 (centres undefined) [pioglitazone] + N#Cc1c(O)c2c(-c3ccc(-c4ccccc4O)cc3)csc2[nH]c1=O [A769662] (first compound 10 µM, partner dose 10 µM)",131%
22,"CC(C)(C)c1cnc(CSc2cnc(NC(=O)C3CCNCC3)s2)o1 + Cc1cc([N+](=O)[O-])ccc1NS(=O)(=O)c1cc(Cl)ccc1Cl [FH535] (first compound 0.05 µM, partner dose 5 µM)",42%
23,"NC(=O)c1ccc(N(C(N)=O)c2c(F)cccc2F)nc1-c1ccc(F)cc1F + CN(c1ncccc1CNc1nc(Nc2ccc3c(c2)CC(=O)N3)ncc1C(F)(F)F)S(C)(=O)=O [PF562271] (first compound 2 µM, partner dose 0.4 µM)",64.2%
24,"Cc1ccc(NC(=O)c2cccc(N(C)C)c2)cc1NC(=O)c1ccc(O)cc1 + Cc1cc(N2CCOCC2)cc2[nH]c(-c3c(NC[C@@H](O)c4cccc(Cl)c4)cc[nH]c3=O)nc12 [BMS536924] (first compound 10 µM, partner dose 1 µM)",106%
25,"Cc1ccc(NC(=O)c2cccc(N(C)C)c2)cc1NC(=O)c1ccc(O)cc1 + Cn1cc(/C=C2\C(=O)Nc3cccnc32)c2ccccc21 [GW441756] (first compound 10 µM, partner dose 2 µM)",64.5%
26,"CC(C)(C)c1cnc(CSc2cnc(NC(=O)C3CCNCC3)s2)o1 + OCCn1cc(-c2cnc3nnn(Cc4ccc5ncccc5c4)c3n2)cn1 [PF04217903] (first compound 0.05 µM, partner dose 5 µM)",40%
27,"NC(=O)c1ccc(N(C(N)=O)c2c(F)cccc2F)nc1-c1ccc(F)cc1F + CCCCCCCCc1ccc(CCC(N)(CO)CO)cc1 [fingolimod] (first compound 2 µM, partner dose 10 µM)",1.06%
28,"NC(=O)c1ccc(N(C(N)=O)c2c(F)cccc2F)nc1-c1ccc(F)cc1F + C[C@@H](Oc1cc(-c2cnn(C3CCNCC3)c2)cnc1N)c1c(Cl)ccc(F)c1Cl [Crizotinib] (first compound 2 µM, partner dose 1 µM)",98.1%
29,"CCCCCCCCc1ccc(CCC(N)(CO)CO)cc1 [fingolimod] + C=C(c1ccc(C(=O)O)cc1)c1cc2c(cc1C)C(C)(C)CCC2(C)C [Bexarotene] (first compound 10 µM, partner dose 10 µM)",0.346%
